Here are results for 61 compounds from PubChem BioAssay AID485344 (National Center for Advancing Translational Sciences (NCATS), 2010).

Among all 340,000 compounds or so, about 6,900 (2%) were called active. Cut-off read from the data, not from the text of the source: active = inhibition above about 30%; inactive = below that, where a call was filed. The list shows a part of the results, in another mix than the full data. The source gives no active or inactive call for entries shown without one.

The target in the assay is D(2) dopamine receptor (Homo sapiens) (UniProt P14416). The experiment in a line: HTS Assay for Allosteric Antagonists of the Human D2 Dopamine Receptor: Primary Screen for Antagonists. Note: 0% is about no effect. The settings on record: HEK293 TREx D2 cells, calcium flux, dopamine EC80; at 10 µM; stronger effect = higher value. A digest of the protocol: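 Tetracycline-induced HEK293 T-REx cells expressing D2 force-coupled to calcium signalling were dye-loaded, exposed to compound for 180 s, then challenged with an EC80 of dopamine; calcium flux was followed kinetically for a further 180 s.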
Sequence of UniProt P14416 (P14416 whole entry, looked up): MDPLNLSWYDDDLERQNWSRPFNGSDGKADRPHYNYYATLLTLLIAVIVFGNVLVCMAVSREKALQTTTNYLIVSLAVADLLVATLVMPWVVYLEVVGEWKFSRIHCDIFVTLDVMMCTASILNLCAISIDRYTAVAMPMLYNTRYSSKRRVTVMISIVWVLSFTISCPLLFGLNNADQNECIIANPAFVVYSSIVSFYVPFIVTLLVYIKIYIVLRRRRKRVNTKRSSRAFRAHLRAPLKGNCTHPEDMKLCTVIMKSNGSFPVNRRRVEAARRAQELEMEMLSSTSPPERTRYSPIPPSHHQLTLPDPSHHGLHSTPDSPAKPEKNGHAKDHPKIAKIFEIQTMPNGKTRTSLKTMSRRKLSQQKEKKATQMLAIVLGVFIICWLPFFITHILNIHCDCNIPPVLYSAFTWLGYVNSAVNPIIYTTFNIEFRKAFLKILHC
(In general: Calcium flux is commonly read through the fluorescence of an indicator in the cells.)
As for `Cc1ccccc1Nc1c(-c2cc(Br)ccc2F)nc2ccccn12`, the inhibition was -5.25%.

As to `O=C(CCN1CCN(c2ccccc2)CC1)NNC(=O)Cc1ccccc1Cl`, the inhibition was active: 48.2%.

In the case of `CCOC(=O)C1CCC(CN(Cc2ccccc2)S(=O)(=O)c2ccc(Br)cc2)CC1` (stereo unspecified), the inhibition is -12.2%.

Turning to `Cc1cccc(/C=C(\C#N)c2nc3ccccc3c(=O)[nH]2)c1`, the inhibition was -1.63%.

Regarding `COc1cc(NC(=O)CCS(=O)(=O)c2ccc3c(c2)CC(=O)N3C)cc(OC)c1OC`, the inhibition is -0.412%.

Consider `CSc1cccc(NC(=O)CCCNC(=O)c2ccc(Cl)cc2)c1`, for which the inhibition is active: 44.6%.

In the case of `CCOc1ccc(-c2cc(C(=O)Oc3ccc(C#N)cc3)no2)cc1`, the inhibition worked out at 9.83%.

As to `COc1ccc(/C=C/c2nc(C#N)c(NCc3ccc(F)cc3)o2)cc1OC`, the inhibition was -13.5%.

Take `COc1ccccc1NC(=O)c1oc2ccccc2c1NC(=O)c1cccc(OC)c1OC`: the inhibition was -5.99%.

For `COc1ccccc1Cn1c(CNS(=O)(=O)c2ccc(C(C)C)cc2)nc2cccnc21`, the inhibition was -7%.

For `CCC(=O)N1CCCc2cc(S(=O)(=O)N3CCC(C(=O)NC4CCCCC4)CC3)ccc21`, the inhibition was 9.25%.

As to `O=C(c1ccc2c(c1)N(Cc1ccc(F)cc1)C(=O)c1ccccc1S2(=O)=O)N1CCCC1`, the inhibition turned out to be 9.87%.

Turning to `COc1ccc(CNC(=O)c2nc(SCc3ccccc3F)ncc2Cl)cc1`, the inhibition was 13.7%.

As for `Fc1ccccc1Cc1cn2cc(-c3ccc(Cl)cc3)nc2s1`, the inhibition is -1.1%.

Consider `O=C(Cn1c(NCCO)nc2ccccc21)c1ccc([N+](=O)[O-])cc1`, for which the inhibition is active: 30.1%.

Consider `Fc1ccc(-c2nn(-c3ccccc3Cl)c3c2cnc2ccccc23)cc1`, for which the inhibition was determined as 17%.

As for `Cc1ccc2onc(CC(=O)N3CCN(c4cc(Cl)ccc4C)CC3)c2c1`, the inhibition was found to be 16.2%.

For `COc1ccc(-n2nc(C(=O)N3CCN(c4cccc(C)c4C)CC3)c3c4ccccc4n(C)c3c2=O)cc1Cl`, the inhibition is -10.4%.

Consider `COc1cccc(CNC(=O)Cn2ncn3nc(-c4cccs4)cc3c2=O)c1OC`, for which the inhibition was 14%.

For the compound `O=C(NCC(c1ccco1)N1CCN(c2ccccc2F)CC1)C1CCCCC1` (stereo unspecified), the inhibition was active: 59.2%.

Turning to `CCC(Oc1ccccc1)C(=O)Nc1cc(-c2cccc(C)c2)nn1-c1ccccc1` (stereo unspecified), the inhibition was determined as 7.4%.

In the case of `COc1ccc(-n2c(C)c(C(C)=O)c3cc(OC(=O)COc4ccccc4)ccc32)cc1`, the inhibition is -6.1%.

`Cc1cc(C)cc(OCC(=O)N(Cc2cccs2)c2ccc(Cl)cc2)c1`: the inhibition is -13.4%.

Take `Cc1cc(-c2ccc(C)c(S(=O)(=O)NCc3cccc(Br)c3)c2)on1`: the inhibition is 3.34%.

In the case of `CCOCCCNC(=O)c1cnc2sc(N3CCCCC3)nn2c1=O`, the inhibition amounted to 1.1%.

On to `CCCCCn1c(CCNC(=O)c2ccc(F)cc2)nc2ccccc21`, for which the inhibition is -9.78%.

Take `COCCCNC(=O)CCc1c(C)nc2nc(-c3cc(OC)cc(OC)c3)nn2c1C`: the inhibition was found to be 12.7%.

On to `CC(C)N(Cc1ccccc1)S(=O)(=O)c1ccc(-c2cc(C(F)(F)F)on2)s1`, for which the inhibition was -9.96%.

On to `CC(C)OCCCNC(=O)CN1C(=O)COc2ccc(S(=O)(=O)N3CCCCCC3)cc21`, for which the inhibition was found to be 5.48%.

Turning to `CCc1ccccc1-n1c(C)nc2cc(C(=O)NCCc3ccc(Cl)cc3)ccc21`, the inhibition was -7.38%.

Consider `O=C(NCCCc1nc2ccccc2n1Cc1ccc(Cl)cc1)C1CCCCC1`, for which the inhibition was 1.57%.

Turning to `Cc1ccc(CNC(=O)C2CCN(S(=O)(=O)c3cn(C)cn3)CC2)cc1`, the inhibition is 21.4%.

For the compound `Cc1ccc(-n2ncc(C(=O)NCCN3CCCC3)c2C2CCN(C(=O)OC(C)(C)C)CC2)cc1C`, the inhibition is 1.48%.

As to `Cc1cc(C(=O)NCCCN2CCN(c3cc(Cl)ccc3C)CC2)n(-c2ccccc2)n1`, the inhibition was active: 47.2%.

Take `COc1cccc(N2CCN(C(=O)c3cc4c(=O)oc5ccc(C)cc5c4s3)CC2)c1`: the inhibition amounted to 0.134%.

With `COc1ccccc1N1CCN(CC(O)c2c(C)[nH]c3ccccc23)CC1` (stereo unspecified), the inhibition is active: 64.9%.

As for `CCCCn1nc(NC(=O)c2cccc(Cl)c2)c2cc3cccc(C)c3nc21`, the inhibition is -5.69%.

Regarding `CCCn1c2ccccc2c2cnn(CC(=O)N3CCCC(C)C3)c(=O)c21` (stereo unspecified), the inhibition was 6.19%.

As to `CC(C)c1ccc(Nc2ncnc3onc(-c4ccc(F)cc4)c23)cc1`, the inhibition is -10.7%.

Turning to `COc1ccc(OC)c2sc(N3CCN(C(=O)CCS(=O)(=O)c4ccc(F)cc4)CC3)nc12`, the inhibition was -23.3%.

Regarding `Cc1cc(Cl)ccc1NC(=O)Cn1nnc2sc(-c3ccccc3)cc2c1=O`, the inhibition was 20.1%.

As for `COC(=O)c1ccc2c(c1)N(Cc1ccc(Cl)cc1)C(=O)c1ccccc1S2`, the inhibition was 2.02%.

As to `Cc1nc2nc(SCC(=O)NC3CCCCC3)nn2c(C)c1Cc1ccccc1Cl`, the inhibition was -3.07%.

Regarding `COCCNc1nc2c(c(=O)n(Cc3cccc(Br)c3)c(=O)n2C)n1C`, the inhibition is 1.93%.

Take `COc1ccccc1CNC(=O)CCC1N=C2c3ccccc3N=C(SCC(=O)Nc3ccc(N(C)C)cc3)N2C1=O` (stereo unspecified): the inhibition was 16%.

Regarding `COc1ccc(S(=O)(=O)N2CCCN(CC(=O)Nc3ccc(OC)cc3OC)CC2)cc1`, the inhibition is -4.95%.

With `Cc1c(C(=O)N(C)C)sc2c1c(=O)n(-c1ccc(Cl)cc1)c(=O)n2Cc1ccccc1F`, the inhibition was found to be 2.1%.

With `CCOC(=O)c1c(C)[nH]c(C)c1S(=O)(=O)N1CCCC(C(=O)NCc2cccc(OC)c2)C1` (stereo unspecified), the inhibition was -5.57%.

As to `Cc1cc(C(=O)N2CCN(c3cccc(C)c3C)CC2)c2c(C)nn(-c3ccccc3)c2n1`, the inhibition is -6.38%.

On to `CCOC(=O)c1sc(NC(=O)C2c3ccccc3Oc3ccccc32)c(C#N)c1C`, for which the inhibition was -12.2%.

Consider `COc1cccc(-c2ccc3c(N)c(C(=O)Nc4cc(C(F)(F)F)ccc4OC)sc3n2)c1`, for which the inhibition worked out at 18.7%.

On to `Cc1ccc(C(=O)c2cn(CC(=O)NCc3ccccc3Cl)c3nc(C)ccc3c2=O)cc1`, for which the inhibition was 15.6%.

As for `O=C1C2CCCN2C(=O)N1CCCCN1CCN(c2cccc(Cl)c2)CC1` (stereo unspecified), the inhibition was active: 79.6%.

`CC(=O)N1CCN(c2ccc(NCc3ccc(C)s3)cc2)CC1`: the inhibition was active: 50%.

Take `Cc1ccccc1C(=O)Nc1nnc2n1CCS2`: the inhibition is 0.165%.

`Cc1ccc(C)c(NC(=O)CN(C)S(=O)(=O)c2ccc3c(c2)CCC(=O)N3)c1`: the inhibition stood at 9.85%.

`CC(C)NC(=O)N1CCN(S(=O)(=O)c2ccc3c(ccn3C)c2)CC1`: the inhibition came out at 0.0475%.

Consider `CCOC(=O)c1cc(-c2ccc(OC)cc2)n(CCC(=O)NCc2ccc(OC)cc2)c1C`, for which the inhibition was 1.93%.

On to `COc1ccc(/C=C\c2onc(C)c2S(=O)(=O)N2CCC(C(=O)Nc3ccc(F)cc3F)CC2)cc1`, for which the inhibition was -2.16%.

`CCOc1ccccc1NC(=O)NCc1ccc2c(c1)CCN2C(=O)c1ccccc1`: the inhibition is -23.1%.

For the compound `Cc1ccc(-c2nc3nc(C)cc(N4CCN(c5cccc(C)c5C)CC4)n3n2)cc1`, the inhibition is -6.47%.

One may read the inhibition as the relative decrease from the control value, in per cent.
